# Only a part is listed here, and it is no random draw. The list includes weakly bound sequences.
# Experiments:
# Test in all cases: protein-binding microarray (PBM)
# Details in all cases: PBM: ~300 nM protein, 6 mM HEPES pH 7.8, 80 mM KCl, 0.5 mM EDTA, 0.5 mM EGTA, 6% glycerol, 35 ng/ul poly-dIdC, 1% milk, 1 h, room temperature; Ap Aiptasia and Nv Nematostella (sea anemones) / Co Capsaspora / Aq Amphimedon (sponge) / Dm Drosophila / Hu human; RHD is the Rel homology domain; high values mean tight binding; most listed sequences are background and not binding sites; double strand, one strand shown
# [1] = molecular target: T1, GST-Nv-NF-kB (Cys allele) (UniProt E5G601)
# T1 sequence: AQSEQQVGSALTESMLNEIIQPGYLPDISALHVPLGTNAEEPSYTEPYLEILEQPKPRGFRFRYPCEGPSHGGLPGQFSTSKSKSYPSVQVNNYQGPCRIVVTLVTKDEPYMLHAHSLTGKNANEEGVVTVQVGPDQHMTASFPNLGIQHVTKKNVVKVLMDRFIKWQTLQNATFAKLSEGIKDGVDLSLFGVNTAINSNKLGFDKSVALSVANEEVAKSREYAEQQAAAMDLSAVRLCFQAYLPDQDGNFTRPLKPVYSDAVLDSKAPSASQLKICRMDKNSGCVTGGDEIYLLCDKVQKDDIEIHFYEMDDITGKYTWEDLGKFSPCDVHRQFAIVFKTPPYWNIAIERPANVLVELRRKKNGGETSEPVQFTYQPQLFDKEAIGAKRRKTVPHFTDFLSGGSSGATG
# GST-Co-NF-kB = molecular target: T2, GST-Co-NF-kB (UniProt F1ARL5)
# T2 sequence: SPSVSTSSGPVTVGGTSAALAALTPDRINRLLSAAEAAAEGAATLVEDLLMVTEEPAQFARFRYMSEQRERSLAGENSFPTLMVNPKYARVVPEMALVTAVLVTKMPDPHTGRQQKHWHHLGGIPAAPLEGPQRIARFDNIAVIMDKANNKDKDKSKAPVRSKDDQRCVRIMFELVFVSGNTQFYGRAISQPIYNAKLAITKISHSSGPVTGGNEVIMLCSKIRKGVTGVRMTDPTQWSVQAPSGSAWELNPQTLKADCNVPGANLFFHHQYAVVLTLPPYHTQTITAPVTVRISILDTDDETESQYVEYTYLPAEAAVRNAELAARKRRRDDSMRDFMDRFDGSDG
# GST-Dm-Relish = molecular target: T3, GST-Dm-Relish (UniProt Q94527)
# T3 sequence: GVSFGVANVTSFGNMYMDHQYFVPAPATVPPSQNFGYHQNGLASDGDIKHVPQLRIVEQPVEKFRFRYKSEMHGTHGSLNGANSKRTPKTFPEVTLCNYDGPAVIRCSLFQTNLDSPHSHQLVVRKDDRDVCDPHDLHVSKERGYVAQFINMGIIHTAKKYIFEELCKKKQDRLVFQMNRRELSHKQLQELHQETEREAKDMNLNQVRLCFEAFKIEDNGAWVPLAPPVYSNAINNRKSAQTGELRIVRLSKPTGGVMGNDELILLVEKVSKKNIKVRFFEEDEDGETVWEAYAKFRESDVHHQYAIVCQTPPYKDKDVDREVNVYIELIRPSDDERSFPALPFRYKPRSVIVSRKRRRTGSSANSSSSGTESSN
Sequence,binding signal [1],binding signal (GST-Co-NF-kB),binding signal (GST-Dm-Relish)
CCGATTAACATCACGGCAACCCCTGATGTTAATCGGGTCTTGATTCGCTTGACGCTGCTG,0.862 z-score,0.5 z-score,
CCGATTAACATCAGGGTGGGAAATGATGTTAATCGGGTCTTGATTCGCTTGACGCTGCTG,3.1 z-score,3.37 z-score,
CCGATTAACATCAAGAGATTCCCTGATGTTAATCGGGTCTTGATTCGCTTGACGCTGCTG,3.88 z-score,2.46 z-score,
CCGATTAACATCAAAAAAGTACCTGATGTTAATCGGGTCTTGATTCGCTTGACGCTGCTG,7.84 z-score,0.587 z-score,
CCGATTAACATCAGAAAATTACCTGATGTTAATCGGGTCTTGATTCGCTTGACGCTGCTG,3.89 z-score,0.323 z-score,
CCGATTAACATCAGGGGTTTTGATGATGTTAATCGGGTCTTGATTCGCTTGACGCTGCTG,3.46 z-score,1.34 z-score,
CCGATTAACATCACGGGGGAATATGATGTTAATCGGGTCTTGATTCGCTTGACGCTGCTG,7.14 z-score,10.6 z-score,
CCGATTAACATCAGGGGAATAAATGATGTTAATCGGGTCTTGATTCGCTTGACGCTGCTG,7.82 z-score,8.22 z-score,
CCGATTAACATCAAAATTACCCATGATGTTAATCGGGTCTTGATTCGCTTGACGCTGCTG,4.69 z-score,2.84 z-score,
CCGATTAACATCAGATTTCCCCCTGATGTTAATCGGGTCTTGATTCGCTTGACGCTGCTG,8.96 z-score,11 z-score,
CCGATTAACATCAGAGTTCCCCCTGATGTTAATCGGGTCTTGATTCGCTTGACGCTGCTG,7.87 z-score,8.96 z-score,
CCGATTAACATCACGGGGGAAAATGATGTTAATCGGGTCTTGATTCGCTTGACGCTGCTG,6.21 z-score,11.7 z-score,
CCGATTAACATCACACATCCCCCTGATGTTAATCGGGTCTTGATTCGCTTGACGCTGCTG,4.4 z-score,4.17 z-score,
CCGATTAACATCACGGACACCCCTGATGTTAATCGGGTCTTGATTCGCTTGACGCTGCTG,0.797 z-score,1.34 z-score,
CCGATTAACATCAAAATACCCCGTGATGTTAATCGGGTCTTGATTCGCTTGACGCTGCTG,5.39 z-score,5.77 z-score,
CCGATTAACATCAGGGAATATACTGATGTTAATCGGGTCTTGATTCGCTTGACGCTGCTG,3.81 z-score,3.18 z-score,
CCGATTAACATCACCACCACCCCTGATGTTAATCGGGTCTTGATTCGCTTGACGCTGCTG,0.972 z-score,2.34 z-score,
CCGATTAACATCAAAATTACCCCTGATGTTAATCGGGTCTTGATTCGCTTGACGCTGCTG,6.27 z-score,7.33 z-score,
CCGATTAACATCAGAAGTCCCCCTGATGTTAATCGGGTCTTGATTCGCTTGACGCTGCTG,7.32 z-score,5.95 z-score,
CCGATTAACATCAGGGAATTTCATGATGTTAATCGGGTCTTGATTCGCTTGACGCTGCTG,7.17 z-score,3.61 z-score,

Sequence,binding signal [1],binding signal (GST-Co-NF-kB),binding signal (GST-Dm-Relish)
CCGATTAACATCAAATTCCCCCATGATGTTAATCGGGTCTTGATTCGCTTGACGCTGCTG,8.92 z-score,9.97 z-score,
CCGATTAACATCACGGGCTTTCCTGATGTTAATCGGGTCTTGATTCGCTTGACGCTGCTG,0.529 z-score,0.365 z-score,
CCGATTAACATCAGGAAACACCATGATGTTAATCGGGTCTTGATTCGCTTGACGCTGCTG,0.185 z-score,0.0331 z-score,
CCGATTAACATCACGGTGTTTCCTGATGTTAATCGGGTCTTGATTCGCTTGACGCTGCTG,1.22 z-score,-0.101 z-score,
CCGATTAACATCACTGGGAAAACTGATGTTAATCGGGTCTTGATTCGCTTGACGCTGCTG,2.36 z-score,5.25 z-score,
CCGATTAACATCAGGAGAGTCCCTGATGTTAATCGGGTCTTGATTCGCTTGACGCTGCTG,5.29 z-score,0.295 z-score,
CCGATTAACATCAGGGGATTGCATGATGTTAATCGGGTCTTGATTCGCTTGACGCTGCTG,5.89 z-score,2.38 z-score,
CCGATTAACATCACCGTTTCCCCTGATGTTAATCGGGTCTTGATTCGCTTGACGCTGCTG,6.66 z-score,7.95 z-score,
CCGATTAACATCAATGGGTTTTCTGATGTTAATCGGGTCTTGATTCGCTTGACGCTGCTG,1.21 z-score,0.972 z-score,2.88 z-score
CCGATTAACATCACAACCCCCCCTGATGTTAATCGGGTCTTGATTCGCTTGACGCTGCTG,3.59 z-score,3.83 z-score,6.16 z-score
CCGATTAACATCAAAACCCCCCGTGATGTTAATCGGGTCTTGATTCGCTTGACGCTGCTG,6.29 z-score,5.04 z-score,10.2 z-score
CCGATTAACATCAGAAATCTCCCTGATGTTAATCGGGTCTTGATTCGCTTGACGCTGCTG,5.21 z-score,2.43 z-score,1.79 z-score
CCGATTAACATCATCTGGGAAAATGATGTTAATCGGGTCTTGATTCGCTTGACGCTGCTG,2.91 z-score,3.73 z-score,-0.237 z-score
CCGATTAACATCACAAACTTCCCTGATGTTAATCGGGTCTTGATTCGCTTGACGCTGCTG,4.26 z-score,2.51 z-score,3.48 z-score
CCGATTAACATCACAACTTTCCCTGATGTTAATCGGGTCTTGATTCGCTTGACGCTGCTG,5.95 z-score,4.34 z-score,2.04 z-score
CCGATTAACATCAACGGGTCCCTTGATGTTAATCGGGTCTTGATTCGCTTGACGCTGCTG,1.84 z-score,-0.487 z-score,0.232 z-score
CCGATTAACATCACGGAAACACCTGATGTTAATCGGGTCTTGATTCGCTTGACGCTGCTG,0.259 z-score,0.506 z-score,1.78 z-score
CCGATTAACATCAAGGGCTTTCCTGATGTTAATCGGGTCTTGATTCGCTTGACGCTGCTG,0.898 z-score,0.0543 z-score,2.98 z-score
CCGATTAACATCAGGGGGTTTCATGATGTTAATCGGGTCTTGATTCGCTTGACGCTGCTG,7.15 z-score,2.56 z-score,8.76 z-score

# From publication PMC5700166
